# Paper PMC4336329 (PLoS ONE, 2015)
# About 2,200 (0.71%) of roughly 310,000 compounds showed an effect of 50% or more. The effect is printed as a negative number. The list shows a part of the results.
# Target: human ether-à-go-go-related gene (hERG) potassium channel (human, UniProt Q12809)
# Test: primary screen, population patch clamp on CHO cells stably expressing hERG
# Sequence of human ether-à-go-go-related gene (hERG) potassium channel (Q12809 whole entry, looked up): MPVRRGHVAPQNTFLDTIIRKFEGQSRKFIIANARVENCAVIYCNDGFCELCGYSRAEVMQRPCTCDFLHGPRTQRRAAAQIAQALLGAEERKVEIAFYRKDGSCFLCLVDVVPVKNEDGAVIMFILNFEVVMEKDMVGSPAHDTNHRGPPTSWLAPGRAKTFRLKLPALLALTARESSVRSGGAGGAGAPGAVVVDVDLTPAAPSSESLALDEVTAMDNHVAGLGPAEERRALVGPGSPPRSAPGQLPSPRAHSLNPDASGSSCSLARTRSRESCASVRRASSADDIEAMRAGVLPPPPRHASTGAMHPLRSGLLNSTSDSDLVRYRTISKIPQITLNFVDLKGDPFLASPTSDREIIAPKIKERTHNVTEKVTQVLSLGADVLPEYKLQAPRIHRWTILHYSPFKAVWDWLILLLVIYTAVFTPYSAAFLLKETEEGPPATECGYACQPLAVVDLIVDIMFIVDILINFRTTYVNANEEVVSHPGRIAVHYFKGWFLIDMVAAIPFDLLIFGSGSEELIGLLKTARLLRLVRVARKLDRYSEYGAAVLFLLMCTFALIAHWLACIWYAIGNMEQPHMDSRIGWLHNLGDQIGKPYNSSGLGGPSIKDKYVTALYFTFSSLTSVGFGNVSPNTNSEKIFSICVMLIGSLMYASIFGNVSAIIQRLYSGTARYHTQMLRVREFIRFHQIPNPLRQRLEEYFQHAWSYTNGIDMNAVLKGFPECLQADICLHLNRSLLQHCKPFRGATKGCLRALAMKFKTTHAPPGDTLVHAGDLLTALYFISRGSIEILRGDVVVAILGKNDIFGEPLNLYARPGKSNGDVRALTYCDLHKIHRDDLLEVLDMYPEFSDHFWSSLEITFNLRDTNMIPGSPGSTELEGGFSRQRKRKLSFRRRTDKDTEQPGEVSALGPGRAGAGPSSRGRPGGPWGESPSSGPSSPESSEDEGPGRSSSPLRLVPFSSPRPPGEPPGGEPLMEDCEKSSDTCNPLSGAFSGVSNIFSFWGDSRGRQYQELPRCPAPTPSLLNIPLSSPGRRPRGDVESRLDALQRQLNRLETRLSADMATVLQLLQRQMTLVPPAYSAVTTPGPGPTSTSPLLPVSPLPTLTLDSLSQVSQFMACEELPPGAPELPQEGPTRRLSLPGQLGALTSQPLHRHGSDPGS
row,SMILES,"hERG current change (%, negative = inhibition) at 1uM"
1,CCOC(=O)C1(Cc2ccc(Cl)cc2)CCN(C(=O)c2ccoc2)CC1,-1.32%
2,Cc1ccc(C(=O)O/N=C(\N)c2ccccc2)c(Cl)c1,4.28%
3,CC(C(=O)N1CCN(Cc2ccccc2)CC1)c1ccc([N+](=O)[O-])cc1 (centres unmarked),-1.49%
4,CCCCC(=O)Nc1ccc(C(=O)NNC(=O)c2ccccc2Br)cc1,-6.35%
5,CCOC(=O)C(C(=O)OCC)C(Nc1cccc(Br)c1)c1ccccc1 (centres unmarked),14.1%
6,COc1ccc(-c2noc(-c3ccccc3C(=O)Nc3cccnc3)n2)cc1OC,0.425%
7,Nc1c(S(=O)(=O)c2ccccc2)cnc2c(-c3ccc(F)cc3)cnn12,0.0455%
8,CCCn1cc(NC(=O)c2cc(-c3ccccc3)on2)cn1,-0.382%
9,CC1CCN(c2ccc([N+](=O)[O-])cc2C(=O)O)CC1,12.6%
10,Cc1ccc(C(=O)Nc2cc(=O)n(C)c(=O)n2C)cc1C,8.19%
11,CCCOc1c(Cl)cc(/C=N/O)cc1OCC,5.27%
12,Cl.O=C(OCCN1CCCCC1)c1ccc(Cl)cc1,-24.6%
13,CC1(C)Cc2ccccc2-c2nnc(-c3cccnc3)n21,9.81%
14,Nc1c(Cl)ncnc1N/N=C/c1cccc(O)c1,9.05%
15,COc1ccc(S(=O)(=O)N2CCCOC2CNC(=O)C(=O)NCc2cccnc2)cc1 (centres unmarked),8.74%
16,COc1cccc2c1C(=O)C=C(C)C2=O,5.1%
17,CC(=O)Nc1c(C#N)c(C(C)(C)C)cn1C,8.28%
18,O=C(N[C@@H](Cc1ccccc1)C(=O)O)c1ccc(C(F)(F)F)cc1,5.8%
19,CCCC(NS(=O)(=O)c1ccc(C)cc1)C(=O)O (centres unmarked),7.83%
20,COCC(=O)N=Nc1c(O)[nH]c2ccccc12,11.7%
21,O=C(Oc1cccc(Oc2ccccc2)c1)N1CCOCC1,-5.48%
22,CC(C)(C)c1ccc(S(=O)(=O)N2CCCC2C(=O)N2CCOCC2)cc1 (centres unmarked),9.87%

row,SMILES,"hERG current change (%, negative = inhibition) at 1uM"
1,CC(O/N=C/c1ccccc1OC(F)F)C(=O)Nc1cccc(S(=O)(=O)N2CCOCC2)c1 (centres unmarked),-14.9%
2,CCOc1ccccc1CN1CCCC(CNC(=O)Cc2ccc(OC)cc2)C1 (centres unmarked),5.39%
3,Cc1ccc(C(=O)CC(C(=O)O)n2cnc([N+](=O)[O-])n2)cc1 (centres unmarked),8.26%
4,CC(C)CCCN1C(Nc2ccccc2)=NC[C@@H]1CC(C)C,-24.9%
5,C=CCn1c(C)nc2ccccc2c1=O,13.2%
6,CCC(C)c1ccccc1NS(=O)(=O)c1cnn(CC)c1 (centres unmarked),8.63%
7,COC(=O)/C(C#N)=C(/Nc1ccc(F)c(Cl)c1)C(F)(F)F,9.93%
8,O=C(Nc1cc(Cl)ccc1-n1cncn1)c1cc(S(=O)(=O)N2CCOCC2)ccc1F,0.298%
9,O=C(CN1CCc2ccccc2C1)N1CCN(S(=O)(=O)c2ccccc2)CC1,3.41%
10,Fc1ccc2c(-c3cccc(C(F)(F)F)c3)c(-c3ccccc3)ncc2c1,14.9%
11,O=C(Cc1cccc2ccccc12)OCn1nnc2ccccc2c1=O,11.2%
12,CC(=O)c1ccc(N2CCN(C(=O)CCS(=O)(=O)c3ccc4c(c3)NC(=O)CS4)CC2)cc1,14.7%
13,O=C(CSc1nnnn1-c1ccc(O)cc1)N1N=C(c2ccc3ccccc3c2)CC1c1ccccc1 (centres unmarked),6.93%
14,CC(=O)c1sc(NC(=O)c2ccc(F)c(F)c2)nc1C,8.87%
15,CC(=O)c1ccc(NC(=O)C(C)Sc2nnc(C3CC3)n2C2CC2)cc1 (centres unmarked),-3.04%
16,O=C(Oc1ccc2ccc(OC(=O)N3CCCCCC3)cc2c1)N1CCCCCC1,-6.36%
17,Oc1ccc(CCc2n[nH]c(=S)n2-c2ccc(F)cc2)cc1,7.8%
18,Cc1cc(Cl)c(S(=O)(=O)NC2CCCCC2)cc1OCC(=O)Nc1nncs1,-1.08%
19,Cc1ccc(CNC(=O)/C=C/c2ccc(S(=O)(=O)NCc3ccco3)cc2)cc1,1.46%
20,CC(C)(C)C(=O)Nc1cccc(C(=O)Nc2cc(C(=O)O)cc(C(=O)O)c2)c1,8.54%
21,CC(Sc1nc2ccccc2s1)C(=O)Nc1ccc2c(c1)OCO2 (centres unmarked),8.7%
22,c1csc(-c2csc(-c3cccs3)n2)c1,10.4%
